{
  "source": "patent US20240254223A1",
  "about": "(NOVIMMUNE, published 2024)",
  "key": {"[1]": {"target": "T1, CD47 at the surface of Peak cells (human, UniProt Q08722)", "T1 construct": "whole, on cells; also called cell surface CD47", "assay": "flow cytometry, Peak cells, after MMP-9 treatment (non-cleavable control)", "protocol": "Binding activity of antibody-cytokine/receptor fusions before and after cleavage was also evaluated by flow cytometry. Peak cells derived from HEK 293 which are human cells expressing CD47 were used to evaluate masking efficacy and binding recovery to CD47 by flow cytometry. Peak cells were diluted in cold FACS buffer (PBS, 2% BSA) to 1.2×10⁶ cells/mL. 3×10⁵ cells/well were added in a 96 well V-bottom plate. The plate was then centrifugated for 5 min at 1300 rpm, 4° C. Supernatants were removed and cells were washed twice using FACS buffer. A serial dilution of antibody-cytokine/receptor fusions previously digested with MMP-9 or not digested as described above was prepared in FACS buffer. An irrelevant antibody was included. Then, 150 μL of each diluted antibody were added in corresponding well and incubated for 30 min at 4° C. Cells were washed twice with FACS buffer and 100 μL of a mouse anti human Fc-PE conjugated secondary antibody were added and the plate was incubated for 20 min at 4° C. Cells were then washed twice with FACS buffer. Finally, 150 μL of SYTOX blue dead cell stain (ThermoFisher) diluted to 1/5000 in FACS buffer were added before detection by flow cytometry with Cytoflex (Beckman Coulter). Acquisition was performed with 10000 events for each well. Data were analyzed by FlowJo software."}, "His-tagged human CD47": {"target": "T2, His-tagged human CD47 (human, UniProt Q08722 fragment, limits assumed)", "T2 construct": "loaded on HIS1K biosensors at 2.5 µg/mL; also called target antigen; not shown: His tag", "assay": "BLI, His-CD47 on HIS1K sensor, antibody 15 µg/mL"}, "[2]": {"target": "T1, CD47 at the surface of Peak cells", "assay": "flow cytometry, Peak cells, before cleavage"}, "[3]": {"target": "T1, CD47 at the surface of Peak cells", "assay": "flow cytometry, Peak cells; EC50 before / EC50 after cleavage"}, "[4]": {"target": "T3, high affinity trimeric IL-2R (IL-2Rα, IL-2Rβ and IL-2Rγ) on HEK-Blue IL-2 cells (UniProt P01589 22-272; P14784 27-551; P31785 23-369)", "T3 sequence (looked up) 1": "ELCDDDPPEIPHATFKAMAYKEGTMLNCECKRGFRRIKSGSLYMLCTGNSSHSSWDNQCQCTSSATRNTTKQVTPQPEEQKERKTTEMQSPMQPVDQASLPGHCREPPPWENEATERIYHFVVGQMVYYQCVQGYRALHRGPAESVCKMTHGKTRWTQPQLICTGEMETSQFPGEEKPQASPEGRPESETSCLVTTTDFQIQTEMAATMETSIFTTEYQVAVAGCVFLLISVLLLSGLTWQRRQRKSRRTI", "T3 sequence (looked up) 2": "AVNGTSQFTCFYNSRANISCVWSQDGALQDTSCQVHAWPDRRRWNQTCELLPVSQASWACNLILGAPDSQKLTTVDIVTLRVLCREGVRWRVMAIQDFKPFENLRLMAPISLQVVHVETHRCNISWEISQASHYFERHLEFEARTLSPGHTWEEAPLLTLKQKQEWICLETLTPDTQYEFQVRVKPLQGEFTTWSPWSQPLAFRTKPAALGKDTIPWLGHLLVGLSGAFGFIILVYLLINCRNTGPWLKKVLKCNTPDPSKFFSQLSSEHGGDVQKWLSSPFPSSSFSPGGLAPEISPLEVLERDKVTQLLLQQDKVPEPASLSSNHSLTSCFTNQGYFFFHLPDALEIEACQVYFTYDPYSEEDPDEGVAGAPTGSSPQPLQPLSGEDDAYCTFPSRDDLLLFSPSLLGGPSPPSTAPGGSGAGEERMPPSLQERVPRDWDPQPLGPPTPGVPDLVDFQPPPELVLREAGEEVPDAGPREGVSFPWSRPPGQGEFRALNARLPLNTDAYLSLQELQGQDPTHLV", "T3 sequence (looked up) 3": "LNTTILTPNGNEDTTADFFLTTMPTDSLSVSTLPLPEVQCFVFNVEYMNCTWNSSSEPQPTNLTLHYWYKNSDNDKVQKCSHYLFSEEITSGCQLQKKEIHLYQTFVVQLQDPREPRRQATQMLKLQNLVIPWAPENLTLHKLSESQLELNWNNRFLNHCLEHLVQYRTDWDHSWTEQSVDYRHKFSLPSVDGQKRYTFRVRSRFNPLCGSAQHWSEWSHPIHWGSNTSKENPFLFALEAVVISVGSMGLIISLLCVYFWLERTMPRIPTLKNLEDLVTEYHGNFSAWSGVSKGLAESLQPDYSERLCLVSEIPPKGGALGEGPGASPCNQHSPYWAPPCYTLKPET", "assay": "cell-based or functional assay"}},
  "data": [
    {"binder": "pNOVI V2K K91_E6 NO LIN_IL-2Rα_1_238_CM1_IL-2_21_153_CM1 VKCK IL-2Rβ_1_239_CM1_VHCH (antibody, human IgG1, kappa, control without cleavable linker; also called n860; construct No 860) light: ELCDDDPPEIPHATFKAMAYKEGTMLNCECKRGFRRIKSGSLYMLCTGNSSHSSWDNQCQCTSSATRNTTKQVTPQPEEQKERKTTEMQSPMQPVDQASLPGHCREPPPWENEATERIYHFVVGQMVYYQCVQGYRALHRGPAESVCKMTHGKTRWTQPQLICTGEMETSQFPGEEKPQASPEGRPESETSCLVTTTDFQIQTEMAATMETSIFTTEGGGGSVHMGGSGGGGSGGGGS[about 150 residues left out]GGGGSGGGGSGGGGSGGSDIQMTQSPSSLSASVGDRVTITCNVDQVIANWLNWYQQKPGKAPKLLIYAASSLQSGVPSRFSGSGSGTDFTLTISSLQPEDFATYYCQQMHPRAPKQFGQGTKVEIKRTVAAPSVFIFPPSDEQLKSGTASVVCLLNNFYPREAKVQWKVDNALQSGNSQESVTEQDSKDSTYSLSSTLTLSKADYEKHKVYACEVTHQGLSSPVTKSFNRGEC heavy: AVNGTSQFTCFYNSRANISCVWSQDGALQDTSCQVHAWPDRRRWNQTCELLPVSQASWACNLILGAPDSQKLTTVDIVTLRVLCREGVRWRVMAIQDFKPFENLRLMAPISLQVVHVETHRCNISWEISQASHYFERHLEFEARTLSPGHTWEEAPLLTLKQKQEWICLETLTPDTQYEFQVRVKPLQGEFTTWSPWSQPLAFRTKPAALGKDGGGGSGGGGSGGGGSGGS[about 120 residues left out][about 100 residues left out][human IgG1 Fc left out]", "values": [
      {"measurement": "EC50", "setting": "[1]", "value": 20.7, "unit": "nM"},
      {"measurement": "Binding before cleavage (BLI)", "setting": "His-tagged human CD47", "value": 0.5, "unit": "nm"},
      {"measurement": "EC50", "setting": "[2]", "value": 22.5, "unit": "nM"},
      {"measurement": "Binding recovery (BC/AC)", "setting": "[3]", "value": 1},
      {"measurement": "EC50 after cleavage IL-2, HEK Blue IL-2 αβγ reporter assay (non-cleavable control after MMP-9 treatment)", "setting": "[4]", "value": 0.11, "unit": "nM"},
      {"measurement": "EC50 before cleavage IL-2, HEK Blue IL-2 αβγ reporter assay", "setting": "[4]", "value": 0.25, "unit": "nM"},
      {"measurement": "EC50 ratio (BC/AC), HEK Blue IL-2 αβγ reporter assay", "setting": "[4]", "value": 2}
    ]},
    {"binder": "pNOVI V2K K91_E8 NO LIN_IL-2Rα_1_238_IL-2_21_153_CM1 VKCK IL-2Rβ_1_239_CM1_VHCH (antibody, human IgG1, kappa, control without cleavable linker; also called n900; construct No 900) light: ELCDDDPPEIPHATFKAMAYKEGTMLNCECKRGFRRIKSGSLYMLCTGNSSHSSWDNQCQCTSSATRNTTKQVTPQPEEQKERKTTEMQSPMQPVDQASLPGHCREPPPWENEATERIYHFVVGQMVYYQCVQGYRALHRGPAESVCKMTHGKTRWTQPQLICTGEMETSQFPGEEKPQASPEGRPESETSCLVTTTDFQIQTEMAATMETSIFTTEGGGGSVHMGS[about 150 residues left out]GGGGSGGGGSGGGGSGGSDIQMTQSPSSLSASVGDRVTITCNVDQVIANWLNWYQQKPGKAPKLLIYAASSLQSGVPSRFSGSGSGTDFTLTISSLQPEDFATYYCQQMHPRAPKQFGQGTKVEIKRTVAAPSVFIFPPSDEQLKSGTASVVCLLNNFYPREAKVQWKVDNALQSGNSQESVTEQDSKDSTYSLSSTLTLSKADYEKHKVYACEVTHQGLSSPVTKSFNRGEC heavy: AVNGTSQFTCFYNSRANISCVWSQDGALQDTSCQVHAWPDRRRWNQTCELLPVSQASWACNLILGAPDSQKLTTVDIVTLRVLCREGVRWRVMAIQDFKPFENLRLMAPISLQVVHVETHRCNISWEISQASHYFERHLEFEARTLSPGHTWEEAPLLTLKQKQEWICLETLTPDTQYEFQVRVKPLQGEFTTWSPWSQPLAFRTKPAALGKDGGGGSGGGGSGGGGSGGS[about 120 residues left out][about 100 residues left out][human IgG1 Fc left out]", "values": [
      {"measurement": "EC50", "setting": "[1]", "value": 47, "unit": "nM"},
      {"measurement": "Binding before cleavage (BLI)", "setting": "His-tagged human CD47", "value": 0.5, "unit": "nm"},
      {"measurement": "EC50", "setting": "[2]", "value": 55.3, "unit": "nM"},
      {"measurement": "Binding recovery (BC/AC)", "setting": "[3]", "value": 1},
      {"measurement": "EC50 after cleavage IL-2, HEK Blue IL-2 αβγ reporter assay (non-cleavable control after MMP-9 treatment)", "setting": "[4]", "value": 0.08, "unit": "nM"},
      {"measurement": "EC50 before cleavage IL-2, HEK Blue IL-2 αβγ reporter assay", "setting": "[4]", "value": 0.28, "unit": "nM"},
      {"measurement": "EC50 ratio (BC/AC), HEK Blue IL-2 αβγ reporter assay", "setting": "[4]", "value": 3}
    ]}
  ]
}
